# Laboratory results: paper PMC10653918, “Antibiotic that inhibits trans-translation blocks binding of EF-Tu to tmRNA but not to tRNA” (mBio, 2023)
# Legend:
# EF-Tu•GTP R318A = EF-Tu•GTP R318A (Escherichia coli, UniProt P0CE47, R319A); test: biochemical
# EF-Tu R318A H319A E378A = EF-Tu R318A H319A E378A (Escherichia coli, UniProt P0CE47, E379A/H320A/R319A); settings: MST, Fig. S5
# [1] = system: E. coli cells with EF-Tu R318K; settings: cells with EF-Tu R318K as only copy
smiles,measurement,setting,value
CCCn1nnnc1NC(=O)c1cccc(Cl)c1 [KKL-55],Kd,EF-Tu•GTP R318A,> 30 µM
same,Kd of R318A mutant relative to wild-type EF-Tu,EF-Tu•GTP R318A; fold higher than wild-type EF-Tu,15 fold
same,binding with triple alanine mutant EF-Tu,EF-Tu R318A H319A E378A,abolished detectable binding
same,MIC compared with wild type,[1],same MIC for KKL-55 as the wild type
